Measurements as given in PMC11995724, “Antibiotic target discovery by integrated phenotypic and activity-based profiling of electrophilic fragments” (Cell chemical biology, 2025).
Out of some 3,200 compounds screened, about 75 (2%) showed an effect of 50% or more. The list shows a part of the results.

Tested on: T1, S. aureus MSSA476
T1 construct: MSSA476
Design: species or system S. aureus MSSA476 (TSB) or V. cholerae SAD30 (LB); 384-well bacterial growth screen at 25 uM, OD600 relative to DMSO control
Settings: relative growth, OD600, TSB; 25 µM; inhibitor

Row | SMILES | % of control remaining
1 | Cc1ncccc1OCC1CCCN1C(=O)C(C)Cl (stereo not shown) [7-C18, 2-chloro-1-(2-{[(2-methylpyridin-3-yl)oxy]methyl}pyrrolidin-1-yl)propan-1-one] | 104.239%
2 | N#CC(=Cc1ccc(C#N)cc1)C(=O)Nc1cccc(Cl)c1Cl [8-J05, 2-cyano-3-(4-cyanophenyl)-N-(2,3-dichlorophenyl)prop-2-enamide] | 125.477%
3 | C=CC(=O)Nc1cc(C(=O)O)ccc1O [1-A12, 4-hydroxy-3-(prop-2-enamido)benzoic acid] | 127.648%
4 | C=CC(=O)Nc1ccc(C(=O)N2CCCCC2CS(C)(=O)=O)cc1 (stereo not shown) [2-N18, N-{4-[2-(methanesulfonylmethyl)piperidine-1-carbonyl]phenyl}prop-2-enamide] | 110.357%
5 | C=CC(=O)N(C)Cc1cn(C)nc1C(C)C [3-F15, N-methyl-N-{[1-methyl-3-(propan-2-yl)-1H-pyrazol-4-yl]methyl}prop-2-enamide] | 119.808%
6 | C=CC(=O)N(Cc1c(C)nn(CC)c1C)c1ccc2c(c1)COC2 [2-G13, N-(1,3-dihydro-2-benzofuran-5-yl)-N-[(1-ethyl-3,5-dimethyl-1H-pyrazol-4-yl)methyl]prop-2-enamide] | 106.179%
7 | C=CC(=O)NCc1coc(-c2cccs2)n1 [1-C07, N-{[2-(thiophen-2-yl)-1,3-oxazol-4-yl]methyl}prop-2-enamide] | 96%
8 | N#CC(=Cc1ccc(C#N)cc1)C(=O)N1CCCC1 [9-P21, 4-[2-cyano-2-(pyrrolidine-1-carbonyl)eth-1-en-1-yl]benzonitrile] | 91.6854%
9 | Cc1ccc(NC(=O)C(C#N)=Cc2ccc(C)s2)c(C)c1 [8-D09, 2-cyano-N-(2,4-dimethylphenyl)-3-(5-methylthiophen-2-yl)prop-2-enamide] | 105.56%
10 | Cn1cc(C=C(C#N)C(=O)NCc2ccco2)cn1 [8-L06, 2-cyano-N-[(furan-2-yl)methyl]-3-(1-methyl-1H-pyrazol-4-yl)prop-2-enamide] | 120.166%
11 | C=CC(=O)N1CCCCC1c1noc(C2CC2)n1 (stereo not shown) [3-K12, 1-[2-(5-cyclopropyl-1,2,4-oxadiazol-3-yl)piperidin-1-yl]prop-2-en-1-one] | 93.3391%
12 | O=C(CCl)N1N=C(C=Cc2ccco2)CC1c1ccco1 (stereo not shown) [4-M22, 2-chloro-1-[5-(furan-2-yl)-3-[2-(furan-2-yl)ethenyl]-4,5-dihydro-1H-pyrazol-1-yl]ethan-1-one] | 86.8985%
13 | CC(Cl)C(=O)N1CCNC(=O)C1Cc1nc2ccccc2o1 (stereo not shown) [6-P03, 3-[(1,3-benzoxazol-2-yl)methyl]-4-(2-chloropropanoyl)piperazin-2-one] | 97.3171%
14 | O=C(CCl)N(Cc1ccccc1)CC(F)(F)F [4-B20, N-benzyl-2-chloro-N-(2,2,2-trifluoroethyl)acetamide] | 114.34%
15 | N#CC(=Cc1cc([N+](=O)[O-])ccc1Cl)C(N)=O [8-F21, 3-(2-chloro-5-nitrophenyl)-2-cyanoprop-2-enamide] | 115.851%
16 | COc1cccc2c1CCC2(CO)NC(=O)CCl (stereo not shown) [5-C20, 2-chloro-N-[1-(hydroxymethyl)-4-methoxy-2,3-dihydro-1H-inden-1-yl]acetamide] | 98.3607%
17 | CC(Cl)C(=O)N(C)C1CCCCC1 (stereo not shown) [5-J04, 2-chloro-N-cyclohexyl-N-methylpropanamide] | 100.546%
18 | CCCN(Cc1ccc(C)cc1)C(=O)CCl [5-J09, 2-chloro-N-[(4-methylphenyl)methyl]-N-propylacetamide] | 98.3607%
19 | O=C(CCl)Nc1ccc(S(=O)(=O)c2ccc(F)cc2)cc1 [6-O14, 2-chloro-N-[4-(4-fluorobenzenesulfonyl)phenyl]acetamide] | 109.268%
20 | O=C(CCl)N(Cc1ccccc1)Cc1cc2n(n1)CCCC2 [5-L03, N-benzyl-2-chloro-N-({4H,5H,6H,7H-pyrazolo[1,5-a]pyridin-2-yl}methyl)acetamide] | 92.1676%
21 | C=CC(=O)N(C)CC(=O)N1CCCC(CC(N)=O)CC1 (stereo not shown) [3-C20, N-{2-[4-(carbamoylmethyl)azepan-1-yl]-2-oxoethyl}-N-methylprop-2-enamide] | 104.832%
22 | O=C(CCl)NCc1ccc(C(=O)N2CCCC2)cc1 [6-G04, 2-chloro-N-{[4-(pyrrolidine-1-carbonyl)phenyl]methyl}acetamide] | 91.5122%
23 | COc1ccc(C2=NN(C(=O)CCl)C(c3ccco3)C2)cc1 (stereo not shown) [4-N19, 2-chloro-1-[5-(furan-2-yl)-3-(4-methoxyphenyl)-4,5-dihydro-1H-pyrazol-1-yl]ethan-1-one] | 78.5136%
24 | C=CC(=O)NCC12CC3CC(CC(C3)C1)C2 [1-F17, N-[(adamantan-1-yl)methyl]prop-2-enamide] | 100.923%
25 | COc1cc(S(=O)(=O)N2CCOCC2)ccc1NC(=O)CCl [6-L12, 2-chloro-N-[2-methoxy-4-(morpholine-4-sulfonyl)phenyl]acetamide] | 90.4878%
26 | C/C(O)=C(\C#N)C(=O)Nc1ccc(-c2ccccc2Cl)cc1 [9-P22, (2Z)-N-{2'-chloro-[1,1'-biphenyl]-4-yl}-2-cyano-3-hydroxybut-2-enamide] | 50.9363%
27 | Cc1csc(C2(NC(=O)CCl)CCOCC2)n1 [7-J03, 2-chloro-N-[4-(4-methyl-1,3-thiazol-2-yl)oxan-4-yl]acetamide] | 98.2732%
28 | CC(Cl)C(=O)N1CCc2sccc2C1c1cccs1 (stereo not shown) [7-K07, 2-chloro-1-[4-(thiophen-2-yl)-4H,5H,6H,7H-thieno[3,2-c]pyridin-5-yl]propan-1-one] | 95.7614%
